# Assay results as given in PubChem BioAssay (NCATS).
# This list was built around the results that the source calls inconclusive (neither active nor inactive); the mix of calls is not that of the screen. For some of these results: Where the call is inconclusive, the potency comes from a doubtful curve fit. The source made the active and inactive calls. Unless noted, calls come from the whole dose curve; as a rule, active = well fitted curve in the direction sought with a large enough effect; inconclusive = small, poorly fitted or top-dose-only effect, or another doubt; inactive = no such curve, though single readings can be large; an effect the other way counts as inactive or inconclusive.
# Experiments:
# [1] = qHTS of pediatric cancer cell lines to identify multiple opportunities for drug repurposing: Primary screen for DAOY cells (AID 1347090); details: DAOY medulloblastoma viability, CellTiter-Glo luminescence, 48 h; activity change, negative = cytotoxic: at 46 µM (top of the series); note: nearly all actives have a fitted effect of over 55% in size
# Procedure, shortened: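 Cell viability, CellTiter-Glo luminescence; 500-1,000 cells/well, 8- or 11-point titration, 48 h compound exposure at 37 degrees C, 5% CO2. Controls: DMSO neutral, bortezomib 2.3 µM final as positive.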
# [2] = qHTS of pediatric cancer cell lines to identify multiple opportunities for drug repurposing: Primary screen for BT-37 cells (AID 1347094)
# Procedure, shortened: (§1)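 ATP-based luminescence (CellTiter-Glo) quantifies viability after a 48-hour exposure. Compounds are dosed across 8 or 11 final concentrations; DMSO and 2.3 µM bortezomib serve as controls.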
# [3] = qHTS of pediatric cancer cell lines to identify multiple opportunities for drug repurposing: Primary screen for BT-12 cells (AID 1347101); note: nearly all actives have a fitted effect of over 25% in size
# Procedure, shortened: (§2)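 Cells (500-1,000/well) rested 5 h, then received compounds for 48 h; metabolically active cells were measured by CellTiter-Glo luminescence. Final concentrations spanned up to 46 µM (MIPE, 11-point) or 0.59 nM-46 µM (NPC, 8-point) in primary screens, 11-point in follow-ups.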
# [4] = qHTS of pediatric cancer cell lines to identify multiple opportunities for drug repurposing: Primary screen for Rh18 cells (AID 1347102); note: nearly all actives have a fitted effect of over 65% in size
# Procedure, shortened: as §2
# [5] = qHTS to identify inhibitors of the type 1 interferon - major histocompatibility complex class I in skeletal muscle: primary screen against the NCATS Mechanism Interrogation Plate v5.0 (MIPE) Libary (AID 1347411); details: iHSKM cells + IFN-b, HiBiT-tagged MHC-I luminescence, 24 h; activity change, negative = inhibition: at 45.8 µM (top of the series); note: nearly all actives have a fitted effect of over 65% in size
# Procedure, shortened: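 Cells were genome-edited human myoblasts carrying a HiBit tag on endogenous HLA-B. They were treated with IFN-beta (4.0 ng/ml) and titrated compounds (top 46 uM) for 24 hrs before lytic HiBiT detection.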
# [6] = target: Cytochrome P450 2D6 (Homo sapiens) (UniProt P10635); experiment: Cytochrome P450 family 2 subfamily D member 6 (CYP2D6) small molecule antagonists: luciferase biochemical (cell-free) qHTS assay (AID 1645840; active = well fitted curve in the direction sought with a large enough effect in the repeat runs; inconclusive = weak or mixed curves; inactive = no such curve, though single readings can be large; an effect the other way counts as inactive or inconclusive; note: nearly all actives have a fitted effect of over 55% in size; for activity change, negative = inhibition: % is set by controls: 0 for no effect and ±100 for the full control effect)
# Procedure, shortened: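 P450-Glo luminescent screen: recombinant CYP2D6 enzyme–proluciferin substrate mix preincubated with compound 10 min at room temperature, then NADPH regeneration added for 1 h at room temperature. Detection reagent added for 20 min; luciferin light read as relative luminescence units.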
# [7] = Primary redox qHTS assay for identification of artifact compounds. (AID 1845223); details: Amplex Red/HRP redox cycling with DTT, fluorescence; redox activity (% of DA3003): at 53.8 µM (top of the series)
# Procedure, shortened: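 Amplex Red (25 uM) and HRP (250 mU/mL) in HBSS, with compounds for 15 min, then 250 uM DTT for 30 min, room temperature, dark. Fluorescence 525/598 nm read; normalized to DMSO and 10 uM DA3003; Hill fit.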
# [8] = Quantitative High-Throughput drug screen in 47 multiple myeloma cell lines against the NCATS MIPE library collection: Karpas417_ECACC cell viability assay (AID 1918961); details: Karpas417 myeloma viability, CellTiter-Glo ATP luminescence, 48 h; viability (% of DMSO): at 45.8 µM (top of the series)
# Procedure, shortened: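 We plated 500 myeloma cells per well, pinned in MIPE 4.0 compounds, and incubated for 48 hours at 37C. ATP was then quantified with CellTiter-Glo, with DMSO and media-only wells defining 100% and 0%.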
# [9] = Quantitative High-Throughput drug screen in 47 multiple myeloma cell lines against the NCATS MIPE library collection: JIM1_ECACC cell viability assay (AID 1918964)
# Procedure, shortened: (§3)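 Primary qHTS used for cherry-picking: cells at 500/well, library compounds for 48 h (37C, 5% CO2), luminescent ATP assay.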
# [10] = Quantitative High-Throughput drug screen in 47 multiple myeloma cell lines against the NCATS MIPE library collection: LP1_DSMZ cell viability assay (AID 1918982); note: nearly all actives have a fitted effect of over 35% in size
# Procedure, shortened: (§4)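 Plated at 500 cells per well, myeloma lines received MIPE 4.0 compounds by pin tool. Following 48 h culture at 37 °C, CellTiter-Glo luminescence gave viability relative to DMSO and media-only controls.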
# [11] = Quantitative High-Throughput drug screen in 47 multiple myeloma cell lines against the NCATS MIPE library collection: L363_DSMZ cell viability assay (AID 1918984); details: L363 myeloma viability, CellTiter-Glo ATP luminescence, 48 h; viability (% of control): at 45.8 µM (top of the series); note: nearly all actives have a fitted effect of over 40% in size
# Procedure, shortened: as §4
# [12] = qHTS for identification of novel therapeutic agents for treatment of microphthalmiaassociated transcription factor (MiT) renal cell carcinoma (RCC) (AID 1963991; calls by dose curve); details: TFE3-RCC UOK109 viability, CellTiter-Glo, 48 h; active = Z-AUC below -0.8 in all three lines
# Procedure, shortened: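 Curves over 11 concentrations were fitted to CellTiter-Glo luminescence, scaled between empty wells (0%) and DMSO (100%) viability. Cells were UOK109, UOK124 and UOK145 TFE3-fusion RCC lines at 500/well, exposed 48 hours at 37 C.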
# [13] = qHTS assay to identify inhibitors of the type 1 interferon - major histocompatibility complex class I in skeletal muscle: Counter screen cell viability and HiBit confirmation (AID 1347412); details: iHSKM muscle cells + IFN-b, HiBiT or CellTiter-Glo, 24 h; note: nearly all actives have a fitted effect of over 60% in size; for activity change, negative = inhibition: % is set by controls: 0 for no effect and ±100 for the full control effect
# Procedure, shortened: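 HLA-B*08:01–HiBiT knock-in immortalized human myoblasts (C25cl48) stimulated with 4.0 ng/ml human IFN-beta and dosed with compound in a 12-point 1:3 titration (top final 46 uM). After 24 hrs at 37 C, HiBiT lytic luminescence or CellTiter Glo ATP read out.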
# [14] = system: UISO; experiment: qHTS assay to identify novel small-molecules to repurpose for Merkel cell carcinoma treatment (AID 1296009); details: MCC and control cell lines, CellTiter-Glo viability, 72 h; activity change, negative = cytotoxicity: at 46 µM (top of the series); note: nearly all actives have a fitted effect of over 60% in size
# Procedure, shortened: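 After compound transfer in DMSO, plates were kept 72 hr at 37 degree celsius. Luminescent ATP signal from CellTiter-Glo served as viability measure, normalized against DMSO and no-cell controls.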
# [15] = qHTS of pediatric cancer cell lines to identify multiple opportunities for drug repurposing: Primary screen for NB1643 cells (AID 1347099); note: nearly all actives have a fitted effect of over 50% in size
# Procedure, shortened: as §1
# [16] = qHTS of pediatric cancer cell lines to identify multiple opportunities for drug repurposing: Primary screen for RD cells (AID 1347104); details: RD rhabdomyosarcoma viability, CellTiter-Glo luminescence, 48 h; activity change, negative = cytotoxic: at 46 µM (top of the series); note: nearly all actives have a fitted effect of over 55% in size
# Procedure, shortened: as §1
# [17] = qHTS of pediatric cancer cell lines to identify multiple opportunities for drug repurposing: Primary screen for Rh41 cells (AID 1347108); note: nearly all actives have a fitted effect of over 70% in size
# Procedure, shortened: as §1
# [18] = Quantitative High-Throughput drug screen in 47 multiple myeloma cell lines against the NCATS MIPE library collection: KMS21BM_JCRB cell viability assay (AID 1918974); details: ATP luminescence, 48 h; viability: at 45.8 µM (top of the series)
# Procedure, shortened: as §3
# [19] = Primary fluorescence-based thiol-reactive (MSTI) qHTS assay for identification of artifact compounds. (AID 1845221);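 note: thiol-reactive compounds lower the probe fluorescence signal; nearly all actives have a fitted effect of over 65% in size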
# Procedure, shortened: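 Thiol-reactive compounds detected by quenching of 4 uM MSTI fluorescence (525/598 nm) after 1 h room-temperature dark incubation in PBS pH 7.4, 2% DMSO. qHTS titration; percent inhibition Hill-fitted against Acetyl-MSTI/MSTI controls.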
# Potency is the fitted concentration of half-maximal effect; tags give direction and shape of the fitted curve.
# UniProt P10635, sequence (P10635 whole entry, looked up): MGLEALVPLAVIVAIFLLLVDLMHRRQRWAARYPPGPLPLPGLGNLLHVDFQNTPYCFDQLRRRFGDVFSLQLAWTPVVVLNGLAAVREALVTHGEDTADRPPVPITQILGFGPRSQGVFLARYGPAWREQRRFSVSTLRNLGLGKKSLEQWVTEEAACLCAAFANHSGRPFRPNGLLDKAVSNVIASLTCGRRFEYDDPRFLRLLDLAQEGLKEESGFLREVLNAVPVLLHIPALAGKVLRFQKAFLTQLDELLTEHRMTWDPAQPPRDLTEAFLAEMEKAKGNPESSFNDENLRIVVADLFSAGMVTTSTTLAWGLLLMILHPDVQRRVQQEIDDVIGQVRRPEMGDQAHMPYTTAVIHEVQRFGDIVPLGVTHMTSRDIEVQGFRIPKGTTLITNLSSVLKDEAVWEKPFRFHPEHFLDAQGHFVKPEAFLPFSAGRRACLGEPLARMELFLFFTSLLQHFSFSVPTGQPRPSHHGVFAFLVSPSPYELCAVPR
structure (smiles),measurement,setting,value
CS(=O)(=O)N1CCc2c(-c3cnc(N)nc3)nc(N3CCOCC3)nc21,Potency,[1],active: 0.469 µM
same,Potency,[2],"inconclusive: 1.22 µM [cytotoxic, full curve]"
same,Potency,[3],"inconclusive: 0.863 µM [cytotoxic, full curve]"
same,Potency,[4],active: 0.372 µM
same,Potency,[5],"inconclusive: 587 nM [inhibitor, full curve]"
same,Potency,[6],inactive
same,Potency,[7],inactive
same,Potency,[8],"inconclusive: 187 nM [cytotoxic, full curve, poor fit]"
same,Potency,[9],"inconclusive: 41.8 nM [cytotoxic, full curve]"
same,Potency,[10],active: 0.0332 µM
same,Potency,[11],"inconclusive: 26.4 nM [cytotoxic, full curve]"
same,Potency,[12],active: 0.0935 µM
same,Potency,[13]; HiBiT,"inconclusive: 3.52 µM [inhibitor, full curve]"
same,Potency,[13]; Viability,"inconclusive: 3.94 µM [cytotoxic, full curve]"
same,Potency,[14],"inconclusive: 0.235 µM [inhibitor, full curve]"
Cc1cc(Nc2ncc3c(n2)N(C)C(=O)N(c2cc(NC(=O)c4cccc(C(F)(F)F)c4)ccc2C)C3)n(C)n1,Potency,[2],"inconclusive: 0.193 µM [cytotoxic, full curve]"
same,Potency,[15],active: 209 nM
same,Potency,[3],"inconclusive: 0.344 µM [cytotoxic, full curve]"
same,Potency,[16],active: 418 nM
same,Potency,[17],active: 743 nM
same,Potency,[5],active: 234 nM
same,Potency,[9],active: 118 nM
same,Potency,[10],"inconclusive: 0.743 µM [cytotoxic, full curve]"
same,Potency,[12],active: 0.264 µM
same,Potency,[13]; Viability,"inconclusive: 0.496 µM [cytotoxic, full curve]"
CCN(CC)C(=O)c1ccc(Nc2nc(OCC3CCCCC3)c3[nH]cnc3n2)cc1,Potency,[6],"inconclusive: 30.1 µM [inhibitor, single point]"
CNC(=O)c1c(F)cccc1Nc1nc(Nc2cc3c(cc2OC)CCN3C(=O)CN(C)C)nc2[nH]ccc12,Potency,[2],"inconclusive: 43.2 µM [cytotoxic, single point]"
same,Potency,[3],"inconclusive: 30.6 µM [cytotoxic, single point]"
same,Potency,[4],active: 8.33 µM
same,Potency,[16],active: 662 nM
same,Potency,[5],active: 7390 nM
same,Potency,[7],"inconclusive: 5.32 µM [activator, full curve, poor fit]"
same,Potency,[8],inactive
same,Potency,[9],"inconclusive: 26.4 nM [cytotoxic, full curve, poor fit]"
same,Potency,[18],"inconclusive: 418 nM [rising, full curve, poor fit]"
same,Potency,[10],active: 16.6 µM
same,Potency,[11],inactive
same,Potency,[12],"inconclusive: 23.5 µM [falling, single point]"
same,"activity change, negative = inhibition","[13]; HiBiT, at 45.9 µM (top of the series)",inconclusive: -70.1% [inhibitor]
same,Potency,[13]; Viability,active: 24.9 µM
same,Potency,[14],active: 5.9 µM
CCOc1cc2c(c(F)c1OCC)C(=N)N(CC(=O)c1cc(N3CCOCC3)c(OC)c(C(C)(C)C)c1)C2,Potency,[1],"inconclusive: 37.2 µM [cytotoxic, single point]"
same,Potency,[2],active: 27.3 µM
same,Potency,[3],active: 27.3 µM
same,Potency,[4],"inconclusive: 26.4 µM [cytotoxic, single point]"
same,Potency,[19],"inconclusive: 26.7 µM [inhibitor, single point]"
same,Potency,[8],inactive
same,Potency,[9],"inconclusive: 10.5 nM [rising, full curve, poor fit]"
same,Potency,[18],"inconclusive: 2960 nM [rising, full curve, poor fit]"
same,Potency,[10],active: 16.6 µM
same,Potency,[11],"inconclusive: 2.3 nM [rising, full curve, poor fit]"
same,Potency,[12],"inconclusive: 29.6 µM [falling, single point]"
same,Potency,[13]; HiBiT,"inconclusive: 44.3 µM [inhibitor, single point]"
same,Potency,[13]; Viability,"inconclusive: 49.7 µM [cytotoxic, single point]"
same,Potency,[14],"inconclusive: 23.5 µM [inhibitor, single point]"
CCS(=O)(=O)N1CCN(c2ccc(Nc3ncc(C(N)=O)c(NC4CC4)n3)cc2)CC1,Potency,[5],"inconclusive: 2620 nM [inhibitor, full curve]"
same,Potency,[19],active: 2.99 µM
same,Potency,[13]; HiBiT,active: 1.98 µM
